Experimental data published in the supplement of paper PMC3724861.
The list shows a part of the results.

Each sequence was assayed on T1, Caupolican (Caup) homeodomain DNA-binding domain (assay: PBM E-score (8-mer, recovered from the published 9-mer minima) (E-score (dimensionless, -0.5 to 0.5)); Drosophila protein; higher = stronger relative binding preference, active = 0.31 or more).
T1 sequence: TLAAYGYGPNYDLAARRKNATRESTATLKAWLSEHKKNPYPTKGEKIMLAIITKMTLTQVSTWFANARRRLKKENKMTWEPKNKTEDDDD
Description: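 Protein binding microarray (PBM): in vitro transcribed/translated Caupolican (Caup) homeodomain DNA-binding domain (residues 214-303) applied at 100 nM to a universal 8-mer PBM array (Agilent AMADID 015681). The 8-mer enrichment score (E-score, range -0.5 to 0.5) was computed, and each 9-mer score is the minimum E-score of its two constituent 8-mers. The E-score is the same for a 9-mer and its reverse complement; 0.31 is the stated binding threshold.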

| Sequence | PBM E-score |
| --- | --- |
| ACTTCTTC | inactive: -0.00485 |
| AGGGGGAA | inactive: -0.219 |
| AATCTAGT | inactive: 0.0691 |
| CACCAGGA | inactive: -0.0674 |
| CTCAGCAG | inactive: -0.0586 |
| CGTTCACA | inactive: 0.138 |
| CCGAACAA | inactive: 0.242 |
| AAGGTTGA | inactive: 0.0447 |
| CGCCCTCC | inactive: -0.285 |
| AGCGGGCC | inactive: -0.23 |
| GCCAGGGC | inactive: -0.227 |
| AAGGACTA | inactive: 0.0433 |
| CTCTGCCC | inactive: -0.181 |
| TACGGTGA | inactive: 0.0565 |
| CGAGGGGC | inactive: -0.252 |
| ATTAGTTC | inactive: 0.154 |
| ACCTTTCC | inactive: -0.00757 |
| CCCACTCG | inactive: -0.191 |
| CAAACTCA | inactive: 0.0685 |
| ACCGTCAG | inactive: -0.217 |
| CGCCAATC | inactive: -0.0987 |
| TAGGCTGA | inactive: -0.0285 |
| AAAAGTTG | inactive: 0.0596 |
| TAGGGCCA | inactive: -0.205 |

| Sequence | PBM E-score |
| --- | --- |
| CATATATG | inactive: 0.163 |
| CGCAGGAC | inactive: -0.0855 |
| CAGCCGGG | inactive: -0.15 |
| GTGACGGA | inactive: -0.0386 |
| ATACAGCA | ≥ 0.201 |
| CGCTCTAA | inactive: -0.103 |
| GACGAGAC | inactive: -0.00613 |
| AATGTCAT | inactive: 0.242 |
| AAAAGACT | inactive: -0.0343 |
| GGCCCTGA | inactive: -0.113 |
| TATGTTAA | active: 0.314 |
| CGCGACTA | inactive: -0.0384 |
| ATGCTCCC | inactive: -0.0751 |
| GTTTTCCA | inactive: 0.163 |
| TAGAGTCA | inactive: -0.00394 |
| CAAGGAAA | inactive: -0.0152 |
| ACTAGCGG | inactive: -0.0634 |
| GGTGAAGA | inactive: -0.15 |
| ATCGGACG | inactive: 0.0109 |
| CTACAACA | active: 0.332 |
| ACTATTGC | inactive: 0.0955 |
| AAGTGAAA | inactive: 0.0805 |
| GCGCGCCC | inactive: -0.265 |
| GCGCACTA | inactive: -0.103 |

| Sequence | PBM E-score |
| --- | --- |
| CCATGAAG | inactive: -0.0368 |
| ATAGACGA | inactive: 0.0964 |
| ATCAGCTA | inactive: 0.0859 |
| AGGACCTG | inactive: -0.102 |
| CGCTCACA | inactive: -0.08 |
| AGTTCAGA | inactive: 0.0135 |
| CTAGCCCA | inactive: -0.207 |
| CTGGCGGA | inactive: -0.148 |
| CGATGACA | inactive: 0.278 |
| GAAACATA | inactive: 0.258 |
| AGGATGTC | inactive: 0.259 |
| ACAATAGC | inactive: 0.0519 |
| GTGCGGCA | inactive: -0.195 |
| ACTTAAGA | inactive: 0.0751 |
| CCGTTTGA | inactive: -0.168 |
| CCGTCTGA | inactive: -0.102 |
| GGAACAAC | inactive: 0.196 |
| ACGTTGGG | inactive: -0.0775 |
| ATCCTGCC | inactive: -0.0993 |
| GCTTACAC | inactive: 0.169 |
| CCGCTCAC | inactive: -0.215 |
| GGAGAGCC | inactive: -0.174 |
| AACGTGTC | inactive: 0.257 |
| GAGGTAAA | inactive: 0.0463 |

| Sequence | PBM E-score |
| --- | --- |
| GAGGGAAC | inactive: -0.204 |
| ACGGTATA | inactive: -0.0223 |
| CCGTAACG | inactive: -0.1 |
| TCAGGAGA | inactive: -0.0246 |
| ATGACAAC | active: 0.375 |
| GCTCAACA | inactive: 0.0489 |
| AAGCGACT | inactive: 0.013 |
| GTGGCGAA | inactive: -0.0979 |
| ACAGTCGT | ≥ 0.0234 |
| GAACAGCA | ≥ 0.189 |
| CCGAGGAC | inactive: -0.0504 |
| GAAACGTA | inactive: 0.0527 |
| CGCGGCAC | inactive: -0.227 |
| ACTTGCCT | inactive: 0.0567 |
| CACGAAGC | inactive: -0.104 |
| GATGCGAC | inactive: -0.0569 |
| GTTTCCCA | inactive: -0.0325 |
| AAAATTCC | inactive: -0.0299 |
| CCGACTTC | inactive: -0.148 |
| AGTTCCGA | inactive: -0.0262 |
| ACTTCGTC | inactive: -0.0453 |
| GCATTTGA | inactive: -0.06 |
| ACGGGGTA | inactive: -0.0892 |
| AAGACTCT | ≥ 0.0253 |

| Sequence | PBM E-score |
| --- | --- |
| GGTTGTCA | active: 0.331 |
| AGGACCTC | ≥ -0.0582 |
| TGCATAAA | inactive: 0.0364 |
| ACAATACT | ≥ 0.277 |
| AAGCTTCA | inactive: -0.0747 |
| CTAGGACA | inactive: 0.241 |
| CGAGTGTA | inactive: 0.0944 |
| CGCGAGTC | inactive: -0.104 |
| ACACGGAT | active: 0.339 |
| CCTATAGG | inactive: -0.258 |
| CTTGCTGA | inactive: -0.0673 |
| CACCGCCC | inactive: -0.144 |
| GTAAGGGA | inactive: 0.049 |
| AAACGGGT | inactive: 0.00066 |
| GCAAACCC | inactive: -0.106 |
| ACGACATA | inactive: 0.299 |
| AGCAGCGA | inactive: -0.00903 |
| AACGTTGC | inactive: -0.0721 |
| CTTAATCA | inactive: 0.013 |
| AGGCTCCG | inactive: -0.182 |
| CCGGCAGC | inactive: -0.216 |
| ATACACAA | active: ≥ 0.341 |
| AAACGGGG | inactive: -0.133 |
| GCTGTAAA | inactive: 0.128 |

| Sequence | PBM E-score |
| --- | --- |
| ATCGCAGC | inactive: -0.0341 |
| CGTCTGGC | inactive: -0.112 |
| CTACGCAG | inactive: -0.00799 |
| TAGAAACA | inactive: 0.223 |
| GATATTGA | inactive: 0.0675 |
| TCGAGTCA | inactive: -0.006 |
| CACCAACA | inactive: 0.0522 |
| AAGAACTA | inactive: 0.0856 |
| CATCTGTA | inactive: 0.204 |
| AGTGGCTC | inactive: -0.0941 |
| AGGTACAG | inactive: 0.146 |
| TCACAACA | ≥ 0.29 |
| GTCGCCAA | inactive: -0.0201 |
| GAATTTAA | inactive: 0.0882 |
| CCGCCTGC | inactive: -0.291 |
| CCACTCAA | ≥ 0.0936 |
| ATGTTGGG | inactive: 0.119 |
| CATGGCGA | inactive: -0.0267 |
| CTACCACA | inactive: 0.0978 |
| ATATGACA | active: 0.336 |
| CATAAAAC | inactive: 0.107 |
| CCAGCTGA | inactive: -0.0549 |
| TACAGCAA | inactive: 0.157 |
| AACCCTTA | ≥ 0.0757 |
